# Measurements taken from the supplement of paper PMC11383711.
# Some of the results follow. Binding of human antibodies (heavy:light variable regions, tested as scFv in one mRNA-display pool) to influenza hemagglutinin, with or without the stem antibody CR9114 bound first. Score = (mean enrichment − median) / interquartile range of that screen; higher = more enriched, 0 = typical non-binder. Active = above the paper's cut-off per screen: stems 28; unblocked H1 Solomon Islands 5, H1 Michigan 3, H3 5, H5 19, H7 2.85, both B 5; blocked 9, 7, H5 10, H7 10, B Phuket 10, B Lee 11.5. Scores are scaled within each screen and are no affinities; replicates correlate at about 0.6 to 0.9, and antibodies rare in the pool are noisier.
# B1: R95-1D06 (protein)
# chain 1: EVQLVESGGGLVKPGGSLRLSCAASGFTFRSYTMNWVRQAPGKGLEWVSSISTTLSFIYYADSVKGRFTISRDNAKNSLYLQMNSLRAEDTAVYYCARDLNSYGTVDYWGQGTLVTVSS
# chain 2: SYELTQPPSVSVAPGQTARIPCGGNNIGSRPVNWYQQKPGQAPVLVVYDDNDRPSGIPERFSGSNSGNTATLTISRVEAADEADFYCQVWDSSRDQSVLGGGTKLTVL
# B2: R95-1G07 (protein)
# chain 1: EVQLVESGGGVVQPGRSLRLSCAASGFTFGSYAIHWVRQAPGKGLEWVAFDSNNKYYVDSVKGRFTTSRDNSKNTLYLQMDSLRAEDTAVYYCAREFQTYAFDYWGQGTLVTVST
# chain 2: SYELTQPPSVSVAPGQTARITCGGNNIGSKSVNWYQQKPGQAPVLVVYDDSDRPSGIPERFSGSNSGNTATLTISRVEAGDEADYHCQVWDSRSDHPVFGGGTKVTVL
# B3: AG12-C05 (protein)
# chain 1: VQLQESGPGLVKPLQTLSLTCTVSGVSIANNGFYWTWVRQRPGKGLEWIGNIFYSGDTSYSPSVERRLTISLDTSKNQFSLRLASVTAADTAVYYCTVESWYSSGPGENHFDSWGQGTLVTVSS
# chain 2: DIQMTQSPSSLSASVGDTVTITCRASETIKFYLNWYQQKPGKAPKLLMSPASSFHRGAPSRFSASGSGTDFSLTISSLQPEDFATYYCQQSYITPRTFGQGTKVEIK
# B4: W85-3B07 (protein)
# chain 1: QVQLQESGPGLVKPSETLSLTCSVSGDSITSYYCSWIRQSPGKGLEWIGYIYYTGSTNYNPSLKSRVTISVDTSKNQFSLKLSSVTAADTAVYYCARHGQLYDVWSGYYRGPEHRYFDLWGRGTLVTVSS
# chain 2: DIVMTQSPDSLAVSLGERATINCKSSQSVLYSSNNRNFLAWYQQKPGQPPKLLISWASARESGVPDRFSGSGSGTDFTLTISNLQAEDVALYYCQQYYTTPYTFGQGTKLEIK
# B5: K77-2E07 (protein)
# chain 1: QVQLVQSGDEVKKPGASMKVSCRSSGFTLTTFYMHWVRQAPGQGLEWVGLIHPNGITTTYAQNFLGRVAMTRDTSTNTVYMDLRSLRSDDTAVYFCARGRAEETWTQRWPPYSLDVWGQGTRVTVSS
# chain 2: EIVLTQSPGTLSLSPGERATLSCRASRSISSSYLAWYQQRPGQAPRLLIYGASSRATGIPDRFSGSGSGTDFTLTISTLEPEDFAVYYCQHYGSSPPVLFGPGTKVDIK
# B6: AG13-3D02 (protein)
# chain 1: VQLVESGGGLVKPGGSLRLSCAASGFTFSDYYMTWIRQAPGKGLEWVSYIDSWSTYTDYPDSVKGRFTVSRDNAKNSLYLQMNSLRAEDTAVYFCARDRGDCSRTTCSFDSWGQGTLVTVSS
# chain 2: DIQMTQSPSSLSASVGDSVNITCRASQNIRRSLHWYQQKSGRAPQLLIFSVSALHGGVPTRFSGSGSGTEFTLTISSLQPEDFATYFCQQSYSRPLTFGPGTKVDIK
# B7: 008-10-1C03 (protein)
# chain 1: EVQLVESGGGLVQPGGSLRLSCEASGFTFSSYWMSWVRQAPGKGLEWVAVMDQDGSDIYYVDSVKGRFTISRDNAKNSLSLQMNSLRAEDTAVYYCARDYWRSGEYWGQGALVTVSS
# chain 2: EIVLTQSPATLSLSPGERATLSCRASQSVSSYLAWYQQRPGQAPRLLIHDASNRATGIPARFSGSGSGTDFTLTISSLEPEDFAVYYCQQGNKWPRTFGQGTKVEIK
# B8: antibody 2E04 (protein)
# chain 1: QVQLQESGPRLVKPSETLSLTCAVSGYSISNYYWGWIRQPPGKGLEWIGSLNHRGNTFYSPSLKSRVTISVDTSKNHFSLKVNSVTAADTAVYYCARGNYYDVDLKLFYFDYWGQGTLVTVSS
# chain 2: DIQMTQSPSSLSASVGDRVTITCRASQNIKTYLNWYQQKPGKAPNLLIYGASSLESGVPSRFSGSGSGTEFTLTISSLQPEDFATYYCQQSYKMFTFGGGTKVEIK
# B9: 240-14-IgA-2F02 (protein)
# chain 1: EVQLLESGGGLVQPGGSLRLSCAASGFTFSTYAMSWVRQAPGKGLEWVSTISGSGGSTYDAESVKGRFTISRDNSKNTLYLQMNSLRAEDTAVYYCAKEGGDFWSGYYANWFDPWGQGTLVTVSS
# chain 2: QSALTQPRSVSGSPGQSVTISCTGTRSDVGGYNYVSWYQQHPGKAPKVIIYDVKKRPSGVPDRFSGSKSGNTASLTISGLQAEDEADYYCSAFAGSHTLFGGGTKVTVL
# B10: W85-3C08 (protein)
# chain 1: ASLVEFWGEGLVPAGGPLRLSCAASGFSVSSNSMSWVRQAPGRGLEWVSLIYTGGSTVYADSVRGRFTISRDNFKNTLLLQMNSLRTEDTAVYYCARAERDGDYEGNWGQGTLVTVSA
# chain 2: EIVLTQSPATLSLSPGERATLSCRASQSVSSYLAWYQQKPGQAPRLLIYGASNRATGIPARFSGSGSGTDFTLTISSLEPEDFALYYCQQRSNWITFGQGTRLEIK
# B11: 014-10-3A02 (protein)
# chain 1: VQLVQSGAEVKKPGASVKVSCKASGYTFTGYYIQWVRQAPGQGLEWMGWINPNSGGTNYAQSFQGRVTMTRDTSVNTAYMELNRLKSDDTAIYYCARDDYPDYEVYWGQGTLVTVSS
# chain 2: EIVLTQSPATLSLSPGERATLSCRASQSVSSYLDWYQQKPGQAPRLLIYDASTRATGIPSKFSGGGSGTDFTLTISSLEPEDFAVYYCQQRGNWLWTFGQGTKVEIK
# B12: SFV019-4E01 (protein)
# chain 1: QVQLQESGPGLLKPSETLSLTCTVSGGSISKYYWTWIRQPPGKTLEWIGYVHYAFYIGATNYNPSLKSRVTISVDTAKNQVSLRLTSVTAADTAVYYCVRADGDSEGFGYHYGMDVWGRGTTVTVSS
# chain 2: DIQMTQSPSSLSASVGDRVTITCRASQGIGNDLAWYQQKLGTAPKRLIYDASSLQSGVPSRFSGSGSGTEFTLTISSLQPEDFATYYCLQHNDYPLTFGQGTKVEIK
# B13: AG10-A05 (protein)
# chain 1: VQLQESGPRLIKPSETLSLTCTVSGGSISSSPYFWGWIRQPPGKGLEWIGSSYYSGNTDYNPSLKSRVTISVDTSKNQFSLKLRSVTAADTAVYYCARRTHDYGDYYYWFDPWGQGTLVTVSS
# chain 2: DIQMTQSPSSLSASVGDRVTITCRTSRTIRNYLNWYQQKPGKAPNLLIYTASTLQSGVPSRFNGSGSGTDFTLTISSLQPEDFATYYCQQSYYFGPGTKVDIK
# B14: W85-1A11 (protein)
# chain 1: EVQLLESGGGLVQPGGSLRLSCTASGFTFSNYAMTWVRQPPGKGLEWVSSISGSGGRTYYADSVKGRFTISRDNSKNTLYLQMNSLRAEDTAVFYCAAASPLLRWYCLDYWGQGTLVPVSS
# chain 2: NFMLTQPHSVSESPGKTVTISCTGSSGSITSNYVQWYQQRPGSAPTTVIYEDNQRPSGVPDRFSGSIDSSSNSASLTISGLKTEDEADYYCQSYDSRNYVVFGGGT
# B15: 16.ND.89 (protein)
# chain 1: QVQLVQSGAEVKEPGASVKVSCKVFGYTLTDLSMHWVRQAPGKGLEWMGGFDPEDDETIYAQNLQGRVTMTEDTSTDTAYMELSSLRSEDTAVYYCTTRDYYDSSGYLVDYWGQGTLVTVSS
# chain 2: DIVMTQSPDSLAVSLGERATINCKSSQSVLHWSNNKNYLAWYQQRPGQPPKLLISWASTRESGVPDRFSGSGCGTDFTLTISNLQPEDVAVYYCQQYYNTPPFTFGPGTKVDIK
# B16: K77-2G04 (protein)
# chain 1: EVQLVQSGGGVVRPGGSLRLSCAGSGFAFDEYGMTWVRQVPGKGLEWVSNINWHGNSAAYADSVKGRFTISRDNARNSLYLQMNRLRAEDTALYYCARNRQPDTSMDYFYYFGMNVWGQGTTVTVSS
# chain 2: DIQMTQSPSSLSASVGDRVTISCQASQDINKYLSWYQQKPGKAPKLLIYDASNLETGVPSRFSGSGSGTEFTLTISSLQPADIATYYCQQYDNVPVTFGRGTNLEIK
# B17: AG4-C01 (protein)
# chain 1: VQLQESGPGLVKPSETLSLTCTVSGGSVTSGNYHWSWIRQSPGKGLEWIAYKYYSGNTKYNPSLKSRVTISLDTSKNQISLKMTSVTAEDTAVYYCARVVLYGSGSYMWFDPWGQGTLVTVSS
# chain 2: DIQMTQSPSSLSASVGDRVTITCRASQNIITYLHWYQQKPGKAPKLLIYATSSLQSGVPSRFSGSGSGTDFTLTISSLQPEDFATYYCQQSFSTLLTFGGGTKVEIK
# B18: AG9-4B03 (protein)
# chain 1: QVQLQESGPGLVKPSETLSLTCADPHSLISSRYYWGWIRQPPGKGLEWIGTIFQSGDTFYNPSLESRVTLFVDTSKNQTSLQLTSVTAADAAVYYCARGLAATGDYYWYALDVWGQGTTVTVSS
# chain 2: EIVLTQSPGTLSLSPGERATLSCRASHSISSGYLAWYQHKPGQAPRLVISDTSDRATGIPDRFSGSGSGTDFTLTFSRLEPEDSAVYYCHQYGILPWTFGQGTKVEIK
# B19: 236-14-IgG-1B03 (protein)
# chain 1: QVQLVQSGAEVKKPGASVKVSCKASGYTFADYYIHWVRQAPGQGLEWMGWMNPNTGGTNYAQKFQGRVTMTRDTSIRTAYMELSRLRSDDTAIFYCARDLGDTTTSDYWGQGTLVTVSS
# chain 2: SYELTQPPSVSVSPGQTARITCSGDALPQQYASWYQQRPGQAPVLVIYKDTERPSGIPERFSGSTSGTTVTLTISGVQAEDEADYYCQSVDITATFGFGGGTKLTVL
# Biological target: H1 HA stem construct (mini-HA #4900)
# Assay: mRNA display binding score; higher = more enriched on the antigen
# Conditions: antigen blocked with: nothing
# Description: (§1)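 A pool of natively paired antibodies, displayed as scFv on mRNA, was selected once on antigen-coated beads and sequenced before and after; two replicates.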
row,Binder,mRNA display binding score
1,B1,inactive: 0.128
2,B2,inactive: -0.9
3,B3,inactive: 0.0276
4,B4,inactive: 0.452
5,B5,inactive: -0.0765
6,B6,inactive: -0.231
7,B7,inactive: -0.405
8,B8,inactive: -0.235
9,B9,inactive: -0.397
10,B10,inactive: -0.09
11,B11,inactive: -0.129
12,B12,inactive: 0.169
13,B13,inactive: 1.07
14,B14,inactive: -0.0556
15,B15,inactive: -0.629
16,B16,inactive: 0.842
17,B17,inactive: 0.489
18,B18,inactive: -0.747
19,B19,inactive: 0.51

# Biological target: H3 HA stem construct (H3ssF)
# Assay: as above
# Conditions: antigen blocked with: nothing
# Description: as §1
row,Binder,mRNA display binding score
1,B1,inactive: -0.614
2,B2,inactive: -0.73
3,B3,inactive: -0.0874
4,B4,inactive: 0.193
5,B5,inactive: -0.242
6,B6,inactive: 0.0703
7,B7,inactive: -0.711
8,B8,inactive: -0.306
9,B9,active: 345
10,B10,inactive: 0.0922
11,B11,inactive: -0.3
12,B12,inactive: -0.24
13,B13,inactive: 0.682
14,B14,inactive: -0.478
15,B15,inactive: -0.402
16,B16,inactive: 3.34
17,B17,inactive: -0.19
18,B18,inactive: -0.459
19,B19,inactive: 1.42
